This passage reports viability index results from the supplement of paper PMC4723716.

The experiment has as its system Plasmodium falciparum NF54 stage V gametocytes. Description: viability index relative to DMSO control (fraction); higher = less gametocyte killing. Conditions: 2.5 µM, incubation time: 72 h. In a few lines: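 Stage V gametocytes of P. falciparum NF54 were held in serum-free screening medium at 0.75% gametocytemia and 1.25% hematocrit, 10 µl per well of a 1,536-well plate, and exposed to compound at 2.5 µM for 72 hr at 37°C under low oxygen. A 3 µl mix of 2.5 µM MitoTracker Red CMXRos with 0.13% saponin was then added for one to two hours, after which one field per well was imaged and red particles of 20–70 µm2 were counted. The viability index equals this count divided by the plate mean from wells given solvent alone.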

The mark [1] stands for this setting: library set: Broad Institute DOS.

Structures are written as SMILES. ± gives the uncertainty stated by the source. The full ranking holds about 9,900 compounds; the median of “viability index relative to DMSO control” is about 1, and the lowest 2% start at about 0.85. The list shows a part of the results.

Under setting [1], `CNC[C@H]1OCCCC[C@@H](C)Oc2ccc(NS(=O)(=O)c3ccc(F)cc3)cc2C(=O)N([C@@H](C)CO)C[C@@H]1C` registered a viability index of 1.01 ± 0.012.
The same measure, in the same setting: under `C/C=C/c1ccc([C@@H]2[C@H](CO)N(C(=O)CN(C)C)C23CN(C(=O)C2CCOCC2)C3)cc1` stands 0.967 ± 0.05; under `CCCC(=O)Nc1ccc2c(c1)C(=O)N(C)[C@@H]1CC[C@@H](CC(=O)N3CCCCC3)O[C@@H]1CO2`, 1.09 ± 0.14.
On to `CNC[C@H]1OCCCC[C@@H](C)Oc2ccc(N)cc2C(=O)N([C@H](C)CO)C[C@@H]1C`, for which, under setting [1], the viability index worked out at 1.08 ± 0.058.
The same measure, in the same setting: under `Cc1noc(C)c1NC(=O)N(C)C[C@H]1OCc2cn(nn2)CCCC(=O)N([C@@H](C)CO)C[C@H]1C` stands 0.957 ± 0.091.
On the same count and under the same terms, under `CCCNC(=O)N(C)C[C@H]1Oc2cc(C#C[C@H](C)O)ccc2S(=O)(=O)N([C@H](C)CO)C[C@H]1C` stands 1.1 ± 0.051.
Under “library set: Broad Institute Blood Stage”, `COc1ccccc1NC(=O)Nc1ccc2c(c1)OC[C@@H](C)N(Cc1ccccc1Cl)C[C@@H](C)[C@H](OC)CN(C)C2=O` showed a viability index of 0.821 ± 0.053.
Under setting [1], `C[C@@H]1CCCCO[C@@H](CN(C)Cc2ccc(Cl)c(Cl)c2)[C@@H](C)CN([C@@H](C)CO)C(=O)c2cc(NS(=O)(=O)c3cccs3)ccc2O1` registered a viability index of 1.03 ± 0.04.
Same read-out and setting: next, `O=C(NC[C@H]1N[C@H](CO)[C@@H]1c1ccc(-c2cncnc2)cc1)C1CCCCC1`: 1.08 ± 0.048; `COc1ccc(CN(C)C[C@@H]2OCCCC[C@H](C)Oc3ccc(NC(=O)C4CCCCC4)cc3C(=O)N([C@H](C)CO)C[C@@H]2C)cc1`: 1.16 ± 0.055; `CO[C@@H]1CC[C@H]2CCOc3ccc(C#N)cc3C(=O)N(C)C[C@@H](c3ccccc3)CC(=O)N(C)C[C@H]1O2`: 1.02 ± 0.014.
Same read-out and setting: next, `CC[C@@H]1C/C=C\CCNC(=O)C[C@H](c2ccccc2)C(=O)N1`: 0.948 ± 0.096.
Under setting [1], `CC(C)[C@@H]1C/C=C/C[C@H](C)Oc2ccccc2C(=O)N(C)[C@H](C(C)C)C(=O)N1.CC(C)[C@@H]1C/C=C\C[C@H](C)Oc2ccccc2C(=O)N(C)[C@H](C(C)C)C(=O)N1` came in with a viability index of 1.06 ± 0.029.
Same read-out and setting: next, `C[C@H]1CCCCO[C@@H](CN(C)Cc2ccc(C(F)(F)F)cc2)[C@@H](C)CN([C@@H](C)CO)C(=O)c2cc(NC(=O)Nc3cccc4ccccc34)ccc2O1`: 1.16 ± 0.018; `COCC(=O)N1CC2(C1)[C@H](c1ccc(-c3ccc(C)cc3)cc1)[C@@H](CO)N2C(C)=O`: 1.053 ± 0.0085; `COc1ccc2c3c([nH]c2c1)[C@@H](CO)N(Cc1ccccc1)C[C@]31CN(C1)C(=O)c1ccccn1`: 0.982 ± 0.018.
On the same count and under the same terms, next, `CN1c2ccc(C#Cc3cccnc3)cc2[C@@H]2[C@@H](CCN2C(=O)c2cccc(F)c2)[C@@H]1CO`: 1.09 ± 0.015.
On the same count and under the same terms, under `O=C(Nc1cccc(F)c1)N1CCCCN2[C@H](CO)[C@@H](c3ccc(C#Cc4cccnc4)cc3)[C@H]2C1` stands 0.8437 ± 0.0061.
For the molecule `C[C@@H]1CN([C@H](C)CO)C(=O)c2cc(NS(=O)(=O)c3cn(C)cn3)ccc2O[C@@H]1CN(C)S(=O)(=O)c1ccc(F)cc1`, the viability index under setting [1] was found to be 0.951 ± 0.011.
The same measure, in the same setting: under `O=C(C1CCCCC1)N1CC2(C1)[C@H](c1ccccc1)[C@@H](CO)N2CCC(F)(F)F` stands 1.05 ± 0.046; under `O=C(CN1CCOCC1)N1CC[C@H]2[C@H](CO)Nc3ccc(-c4ccccc4F)cc3[C@H]21`, 0.9492 ± 0.0024.
Same read-out and setting: next, `COc1cccc(-c2ccc([C@@H]3[C@@H]4CN(S(=O)(=O)c5cn(C)cn5)C[C@H]3N4)cc2)c1`: 1.11 ± 0.085; `O=C(c1ccncc1)N1CC2(C1)[C@H](c1ccccc1)[C@H](CO)N2CC1CC1`: 1.09 ± 0.018.
Still for that read-out and setting: next, `O=C(C[C@@H]1C=C[C@@H](NC(=O)Nc2ccccc2F)[C@H](CO)O1)NCc1ccc(-c2ccccc2)cc1`: 1.09 ± 0.1; `Cc1noc(C)c1S(=O)(=O)Nc1ccc2c(c1)C(=O)N([C@@H](C)CO)C[C@@H](C)[C@H](CN(C)C(=O)Nc1cccc3ccccc13)OCCCC[C@H](C)O2`: 0.983 ± 0.044.
Under setting [1], `CN1C[C@H]2[C@@H](c3ccccc31)[C@H](CO)N2S(=O)(=O)c1ccccc1` returned a viability index of 1.046 ± 0.0068.
Same read-out and setting: next, `Cc1noc(C)c1NC(=O)Nc1ccc2c(c1)C(=O)N([C@H](C)CO)C[C@@H](C)[C@H](CN(C)Cc1ccc3c(c1)OCO3)OCCCC[C@H](C)O2`: 1.11 ± 0.032; `C[C@H]1CN([C@@H](C)CO)S(=O)(=O)c2ccc(Br)cc2O[C@H]1CN(C)C(=O)Nc1ccccc1F`: 1.01 ± 0.046.
Under setting [1], `C[C@@H](NC(=O)C[C@H]1CC[C@@H]2[C@@H](COc3ccc(NS(=O)(=O)c4ccc(Cl)cc4)cc3C(=O)N2C)O1)c1ccccc1` displayed a viability index of 0.9973 ± 0.0017.
Still for that read-out and setting: next, `C[C@H]1CN([C@@H](C)CO)C(=O)c2ccccc2-c2ccccc2CO[C@H]1CN(C)C(=O)CCC(F)(F)F`: 1 ± 0.23.
The same measure, in the same setting: next, `O=C(Nc1ccccc1F)N1CCCCN2[C@H](C1)[C@@H](c1ccc(/C=C/c3ccccc3)cc1)[C@@H]2CO`: 0.929 ± 0.011; `C[C@H]1CCCCO[C@H](CN(C)C(=O)Nc2ccc3c(c2)OCO3)[C@@H](C)CN([C@@H](C)CO)C(=O)c2cc(NS(=O)(=O)c3ccc(F)cc3)ccc2O1`: 1.04 ± 0.093.
Still for that read-out and setting: next, `O=C(c1ccncc1)N1CC2(C1)[C@H](c1ccccc1)[C@@H](CO)N2CC1CC1`: 1.08 ± 0.016.
As for `CO[C@@H]1CN(C)C(=O)c2ccc(NC(=O)Nc3ccccc3F)cc2OC[C@H](C)N(CC2CC2)C[C@@H]1C`, the viability index under setting [1] is 1.001 ± 0.0029.
Still for that read-out and setting: under `O=C(C[C@H]1CC[C@H]2[C@@H](COC[C@@H](O)CN2C(=O)c2ccncc2)O1)Nc1ccc(-c2ccccc2)cc1` stands 1.1013 ± 0.00074; under `N#C[C@@H]1[C@H](c2ccc(C3=CCCCC3)cc2)[C@H](CO)N1C(=O)Nc1ccccc1F`, 1.01 ± 0.069.
Same read-out and setting: under `CN(C)C(=O)c1ccc(-c2ccc3c(c2)[C@H]2[C@H](CCN2C(=O)C2CCCC2)[C@@H](CO)N3C)cc1` stands 0.9489 ± 0.0085; under `CN(C)C(=O)c1cccc(-c2ccc3c(c2)[C@@H]2[C@@H](CCN2C(=O)Cc2ccccc2)[C@@H](CO)N3)c1`, 1.04 ± 0.025; under `COc1ccccc1CN1[C@@H]2c3ccc(C4=CCCC4)c(=O)n3C[C@H]1[C@H](CO)[C@H]2C(=O)N(C)C`, 1.05 ± 0.028.
Same read-out and setting: under `Cc1ccc(S(=O)(=O)NCC[C@H]2CC[C@@H](NC(=O)c3cccnc3)[C@@H](CO)O2)cc1` stands 1.16 ± 0.032; under `C[C@@H]1CN([C@H](C)CO)S(=O)(=O)c2ccc(C#Cc3ccccc3F)cc2O[C@H]1CN(C)C(=O)Cc1cccnc1`, 0.963 ± 0.02; under `COCC(=O)Nc1ccc2c(c1)[C@H]1C[C@@H](CC(=O)N[C@@H](C)c3ccccc3)O[C@@H](CO)[C@H]1O2`, 1.083 ± 0.01.
Regarding `CN1C(=O)c2cc(NC(=O)C3CCOCC3)ccc2OC[C@H]2O[C@H](CC(=O)NCCc3ccncc3)CC[C@@H]21`, under setting [1], the viability index came to 1.14 ± 0.095.
Under setting [1], `CO[C@H]1CN(C)C(=O)c2ccc(NC(=O)c3ccno3)cc2OC[C@H](C)N(S(C)(=O)=O)C[C@@H]1C` displayed a viability index of 1.07 ± 0.034.
Still for that read-out and setting: under `CO[C@H]1CN(C)C(=O)c2ccc(NC(=O)c3nc4ccccc4s3)cc2OC[C@@H](C)N(Cc2cccnc2)C[C@H]1C` stands 1.11 ± 0.022; under `COc1ccc2c3c([nH]c2c1)[C@H](CO)NC[C@]31CN(C1)C(=O)Nc1ccc2OCOc2c1`, 1.03 ± 0.021.
In the case of `CO[C@H]1CN(C)C(=O)c2ccc(NC(=O)Nc3cc(F)ccc3F)cc2OC[C@H](C)N(C(=O)c2ccccn2)C[C@@H]1C`, the viability index under setting [1] stood at 1.13 ± 0.11.
The same measure, in the same setting: next, `C[C@@H](NC(=O)C[C@@H]1CC[C@H]2[C@@H](COC[C@@H](O)CN2C(=O)Nc2cccc(Cl)c2)O1)c1ccccc1`: 1.11 ± 0.047; `C[C@H](CO)N1C[C@H](C)[C@@H](CN(C)C(=O)Nc2ccc3c(c2)OCO3)OCCCC[C@H](C)Oc2ccc(NS(=O)(=O)c3ccc(F)cc3)cc2C1=O`: 1.12 ± 0.1; `Cn1cnc(CCNC(=O)C[C@H]2CC[C@H]3[C@@H](COC[C@@H](O)CN3C(=O)Nc3ccc(C(F)(F)F)cc3)O2)c1`: 1.09 ± 0.031.
Same read-out and setting: next, `CN1C(=O)c2cc(NC(=O)Nc3ccccc3Cl)ccc2OC[C@H]2O[C@H](CC(=O)NCCCN3CCOCC3)CC[C@H]21`: 1.16 ± 0.066.
The molecule `O=C(NCCN1CCCC1)[C@@H]1[C@@H](CO)[C@@H]2Cn3c(cccc3=O)[C@@H]2N1Cc1ccccn1` had a viability index under setting [1] of 1.04 ± 0.045.
The same measure, in the same setting: under `CCCNC(=O)N1[C@H](CNC(=O)c2cccc(F)c2)[C@@H](c2ccccc2)[C@@H]1CO` stands 0.9577 ± 0.0012.
The same measure, in the same setting: next, `CO[C@H]1CN(C)C(=O)c2cc(NC(=O)Nc3c(C)noc3C)ccc2OC[C@@H](C)NC[C@@H]1C`: 1.04 ± 0.062; `CCC(=O)Nc1ccc2c(c1)C(=O)N(C)C[C@@H](OC)[C@H](C)CN(C(=O)Cc1cccnc1)[C@@H](C)CO2`: 1.13 ± 0.043.
As to `C[C@@H]1CCCCO[C@@H](CN(C)C(=O)CCCN(C)C)[C@H](C)CN([C@@H](C)CO)C(=O)c2cc(NC(=O)Nc3ccc4c(c3)OCO4)ccc2O1`, the viability index under setting [1] is 1.15 ± 0.03.
Same read-out and setting: under `COc1cccc(C#Cc2ccc([C@H]3[C@@H](CO)N4C(=O)CN(C(=O)Cc5cccnc5)C[C@@H]34)cc2)c1` stands 1.03 ± 0.1.
Still for that read-out and setting: under `O=C(NCC[C@@H]1CC[C@@H](NC(=O)c2ccccc2F)[C@@H](CO)O1)c1cnccn1` stands 0.976 ± 0.13; under `C[C@@H]1C(=O)N[C@@H](c2ccccc2)C/C=C/C[C@H](C)Oc2ccccc2C(=O)N1C.C[C@@H]1C(=O)N[C@@H](c2ccccc2)C/C=C\C[C@H](C)Oc2ccccc2C(=O)N1C`, 1.06 ± 0.06; under `COc1ccc(CN2C[C@@H](O)COC[C@H]3O[C@@H](CC(=O)N(C)C)CC[C@@H]32)cc1`, 1.068 ± 0.01.
On the same count and under the same terms, under `O=C1CNC[C@@H]2[C@@H](c3ccc(C#CC4CCCCC4)cc3)[C@H](CO)N12` stands 1.055 ± 0.0017; under `C[C@@H]1CN([C@H](C)CO)C(=O)c2c(c3ccccc3n2C)-c2ccccc2CO[C@@H]1CN(C)C(=O)Nc1ccc2c(c1)OCO2`, 0.979 ± 0.045.
`C[C@@H]1CN([C@H](C)CO)C(=O)c2cc(NC(=O)NC3CCCCC3)ccc2O[C@@H]1CN(C)S(C)(=O)=O` had a viability index under setting [1] of 1.036 ± 0.0089.
Under setting [1], `CC(=O)N1[C@@H]2c3ccc(-c4cncnc4)c(=O)n3C[C@@H]2[C@@H](CO)[C@@H]1C(=O)NCc1ccccc1Cl` came in with a viability index of 0.984 ± 0.016.
Still for that read-out and setting: next, `COc1ccccc1C(=O)N1C[C@H]2[C@@H](c3ccccc31)[C@H](CO)N2C(=O)Cc1ccccc1`: 1.04 ± 0.12; `N#C[C@H]1[C@H](c2ccccc2)[C@H](CO)N1C(=O)c1ccccc1F`: 1.04 ± 0.034.
Same read-out and setting: under `COc1ccc(NC(=O)N2CC[C@@]3(CC2)CN([C@H](CO)c2[nH]c4cc(OC)ccc4c32)C(=O)CN2CCOCC2)cc1` stands 0.973 ± 0.068.
